PubChem BioAssay AID1345083 (National Center for Advancing Translational Sciences (NCATS), 2018)
The whole screen tested about 94,000 compounds, of which about 6,200 (6.6%) were called active. Inconclusive results, whose numbers are uncertain, are shown with a selection of clear calls. Calls come from the whole dose curve; as a rule, active = well fitted inhibition curve with a large enough effect; inconclusive = small, poorly fitted or top-dose-only effect; inactive = flat fitted curve, though single readings scatter. Potencies beside an inconclusive call are fits to weak or partial responses and may not hold up.

Assay: Cytotoxic Profiling in HEK 293 Cell Line of Diverse Libraries Using Quantitative High-Throughput Screening; note: nearly all actives have a fitted effect of over 60% in size
Conditions: HEK 293 viability, ATP luminescence (CellTiter-Glo), 48-72 h; series mostly up to 115 µM
Method in brief: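 HEK 293 seeded at 250 cells/well receive compound via pintool. After 48 or 72 hr at 37 degree Celsius, 5% CO2 and 95% humidity, CellTiter-Glo is dispensed and luminescence read following 10 min at room temperature.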
Potency is the fitted concentration of half-maximal effect; tags give direction and shape of the fitted curve.

Structure (SMILES) | Potency
CN(Cc1ccccc1)[C@H]1C[C@H]2CCOC[C@@]2(c2ccccc2)C1 | inconclusive: 79.4 µM [inhibitor, partial curve, poor fit]
Cc1ccc(C2Cn3nnc(-c4noc(-c5ccc[nH]5)n4)c3CO2)cc1 (stereo not drawn) | inactive
COc1ccccc1-c1ccc2ncc(Nc3cccnc3OC)n2n1 | inconclusive: 70.8 µM [inhibitor, partial curve, poor fit]
CC(=O)N1CCN(C(=O)CCC2CCN(c3cc(NC4CC4)ncn3)CC2)CC1 | inconclusive: 3.55 µM [inhibitor, full curve, poor fit]
O=C(NC1CCCN(c2cc(-c3ccccc3)[nH]n2)C1)c1ccc2[nH]ccc2c1 (stereo not drawn) | inconclusive: 44.7 µM [inhibitor, partial curve, poor fit]
CC(=O)c1cc(C(=O)N2CCC(n3nccc3NC(=O)CC(C)C)CC2)cs1 | inactive
O=C1NC2(CCN(Cc3ccc(OC(F)(F)F)cc3)C2)OCc2ccccc21 (stereo not drawn) | active: 79.4 µM
Cc1nc(N)nc(C)c1CC(=O)N1CC2(CCNCC2)CC1C(=O)O (stereo not drawn) | inactive
Cc1ccc(C(=O)NC2CC(=O)N(CCCc3ccccc3)C2)s1 (stereo not drawn) | inactive
CC(=O)NC[C@H]1CCN(S(=O)(=O)c2ccc(F)c(Cl)c2)C[C@H]1N(C)C | inactive
Cc1ccc(OCC(=O)N2CCCN(S(C)(=O)=O)c3ccccc32)cc1 | inactive
Cc1cnc(C2CCC2)n1CCC1CCN(C(=O)c2ccc3ccccc3n2)CC1 | inconclusive: 89.1 µM [inhibitor, single point]
CC(C)CCN1C(=O)CC[C@]2(C(=O)NC3CCCC3)CCCC[C@@H]12 | inconclusive: 100 µM [inhibitor, single point]
COCc1ccc2c(c1)c(OC(C)(C)C(=O)NCc1ccncc1)nn2CCC(C)C | inconclusive: 56.2 µM [inhibitor, full curve, poor fit]
O=C(c1ccc2ccccc2n1)N1CCC(Cc2ccc(CN3CCOCC3)cc2)CC1 | active: 35.5 µM
O=C(c1ccc(Cl)cc1)N1CCC(Cc2nc(-c3cnccn3)no2)CC1 | inconclusive: 44.7 µM [inhibitor, partial curve]
O=C(Cn1ccn2nc(-c3ccccc3)c(CO)c2c1=O)NCCc1ccc(Cl)cc1 | inconclusive: 89.1 µM [inhibitor, single point]
O=C(NC1CC1)C1c2ccccc2C(=O)N(C2CCCCC2)C12CCCCC2 (stereo not drawn) | active: 31.6 µM
Fc1ccc(Nc2ncc(-c3cccnc3)c3c2OCC3)cc1 | inactive
Cn1cc(CC(=O)N2CCCc3ncc(C(=O)NCCN4CCCC4)cc32)c2ccccc21 | inactive
CCOC(=O)C1(Cc2ccccc2)CCCN(C(=O)C#Cc2ccccc2)C1 (stereo not drawn) | inconclusive: 50.1 µM [inhibitor, partial curve, poor fit]
Nc1ncccc1CN1CCC2(CC1)CC(c1ccccc1)C(=O)N(C1CC1)C2 (stereo not drawn) | inactive

Structure (SMILES) | Potency
O=C1CC(c2noc(Cc3ccc(F)cc3)n2)CN1c1ccc(F)c(Cl)c1 (stereo not drawn) | active: 22.4 µM
CCN(CC)Cc1cnc2c(C(=O)NCc3nc(C)cs3)cnn2c1 | inactive
CN1CCC(Oc2ccc(C(=O)NCCc3ccncc3)cn2)CC1 | inactive
COc1ccc(-c2ccc(C(=O)NCc3cccc(F)c3)cc2)nn1 | inconclusive: 50.1 µM [inhibitor, partial curve, poor fit]
CC(=O)NC1(C)CN(Cc2ccc(-c3cccc(C(F)(F)F)c3)nc2)C1 | inconclusive: 39.8 µM [inhibitor, partial curve, poor fit]
COc1ccc(-c2noc([C@@H]3CCCN3C(=O)CCCc3ccccc3)n2)cc1 | inconclusive: 70.8 µM [inhibitor, partial curve, poor fit]
O=C1Nc2ccccc2CNC12CCN(CC1CCCC1)CC2 | inactive
Cc1ccccc1CC(=O)N1CCC2(CC1)NC(=O)N(c1ccccc1)N2 | inconclusive: 50.1 µM [inhibitor, partial curve, poor fit]
COC(=O)C1=C(C)N=C2SC=C(CC(=O)N3CCC(C)CC3)N2C1c1ccccc1Cl (stereo not drawn) | inconclusive: 50.1 µM [inhibitor, partial curve, poor fit]
CCN1CCC2(Cc3ccccc3CN(C(=O)c3c(C)noc3C)C2)C1 (stereo not drawn) | inactive
O=C(Cc1ccc(F)cc1)NC1CCN(Cc2cccc(-c3ccc(F)c(F)c3)c2)CC1 | inactive
Cc1noc(C)c1COc1ccc(C(=O)N[C@@H]2CN(C(=O)Nc3ccc(F)cc3)CCC[C@H]2O)cc1 | inconclusive: 89.1 µM [inhibitor, partial curve, poor fit]
O=C(c1ccc(-c2ccco2)cc1)N1CCOC(c2ccccc2)C1 (stereo not drawn) | inconclusive: 50.1 µM [inhibitor, partial curve, poor fit]
COc1cccc(C(=O)N2CCC(C(=O)N3CCC(N4Cc5ccccc5C4=O)CC3)CC2)c1 | inconclusive: 89.1 µM [inhibitor, partial curve, poor fit]
COCC1CN(C2CCC2)CC12CCN(C(=O)CC1CCCCC1)CC2 (stereo not drawn) | inconclusive: 56.2 µM [inhibitor, partial curve, poor fit]
COc1ccc(NC(=O)Cn2ccn3nc4c(c3c2=O)CCCCC4)cc1 | inconclusive: 89.1 µM [inhibitor, single point]
COc1cccc(-c2cc(C(=O)Nc3ccccc3F)c3cnn(C)c3n2)c1 | inconclusive: 8.91 µM [inhibitor, full curve, poor fit]
CN(C)C(=O)c1ccc2c(c1)NC(C)(CCCCc1ccccc1)CO2 (stereo not drawn) | inconclusive: 89.1 µM [inhibitor, partial curve]
COCCN1Cc2[nH]nc(-c3cccc(C(F)(F)F)c3)c2CC1=O | inconclusive: 112 µM [inhibitor, single point]
CN(CC1CCN(CCc2ccc(Cl)cc2)CC1)C(=O)c1ccccc1C#N | inconclusive: 50.1 µM [inhibitor, partial curve, poor fit]
O=C(C[C@@H]1C[C@H]2O[C@H](CNCc3ccccc3OC(F)(F)F)[C@@H](O)[C@H]2O1)N1CCOCC1 | inactive
